The supplement of paper PMC3334620
Over roughly 33,000 sequences, “E-score (-0.5 to 0.5)” has its median near -0.012; the highest 2% begin near 0.27. The list shows a part of the results.

Biological target: T1, Vhr1 (UniProt P40522)
T1 sequence: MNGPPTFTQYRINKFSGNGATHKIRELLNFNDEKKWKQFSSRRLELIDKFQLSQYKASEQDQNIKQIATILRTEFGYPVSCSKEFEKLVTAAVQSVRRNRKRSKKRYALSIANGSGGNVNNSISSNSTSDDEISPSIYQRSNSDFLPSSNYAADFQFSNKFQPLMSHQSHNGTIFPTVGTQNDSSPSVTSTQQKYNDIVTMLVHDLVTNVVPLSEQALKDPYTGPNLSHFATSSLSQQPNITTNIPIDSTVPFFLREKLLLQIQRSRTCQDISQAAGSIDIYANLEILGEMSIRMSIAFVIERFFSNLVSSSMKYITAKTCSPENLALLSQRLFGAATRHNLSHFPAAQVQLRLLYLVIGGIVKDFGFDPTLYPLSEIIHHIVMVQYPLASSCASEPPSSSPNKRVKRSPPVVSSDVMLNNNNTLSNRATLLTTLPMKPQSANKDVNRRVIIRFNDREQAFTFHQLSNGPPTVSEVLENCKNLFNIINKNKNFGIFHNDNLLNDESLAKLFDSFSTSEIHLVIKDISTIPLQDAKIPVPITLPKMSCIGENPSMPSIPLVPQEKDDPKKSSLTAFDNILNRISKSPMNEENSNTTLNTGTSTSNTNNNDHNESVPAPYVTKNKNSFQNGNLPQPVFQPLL
Assay: PBM E-score (8-mer binding enrichment) (E-score (-0.5 to 0.5)); higher = stronger / more preferred TF binding; most listed sequences are background and not binding sites
Settings: protein concentration: 200 nM; construct: GST-full length
Summary of the method: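 Universal all-10-mer Agilent arrays, fresh or stripped once, were converted to double-stranded form by primer extension. GST-tagged yeast transcription factors from PURExpress in vitro transcription/translation, full-length or DNA-binding domain only, were applied at about 100-200 nM and detected with fluorescent anti-GST. After masliner normalisation, the Universal PBM Analysis Suite scored each ungapped eight-base word together with its reverse complement by E-score.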

Sequence | PBM E-score
AAGAGGAC | -0.0872
CACATCAC | 0.0638
GCATAAAC | 0.0187
CACTAAGA | 0.0295
CGGGCCAA | -0.158
ATCCTGTC | 0.177
ATAGCTCA | 0.0225
AACATAGT | 0.182
GACATTGC | -0.114
ATATTTAA | 0.159
ATGGTCCC | -0.0815
CGGTACTC | 0.176
TCACCCGA | 0.141
AGAGCAAT | -0.117
AAGAGCGG | 0.0833
CACCTTTC | -0.192
ATCGTAAA | -0.0323
GGCGTGTA | 0.037
CTGGGTGA | 0.275
GCAACGCA | -0.243
ACGTAGCT | 0.0213
GCAGCGCC | -0.0717
CGGTGTCC | -0.121
ACTTTTTA | -0.0921
AAGATAAC | 0.0252

Sequence | PBM E-score
TGCCCTAA | -0.269
ACTCTAAT | 0.0306
GATCCTCC | -0.167
GCAGCAAA | 0.0207
ACTCCAAC | 0.106
CGGGGGGC | -0.102
GGGCCCAA | -0.0359
CACGTGTC | 0.0728
GGGATTGA | -0.131
AAATCTAA | -0.17
AGTTTTGA | 0.00733
CGGTATAC | 0.0514
GGTATGCA | 0.0684
GGCTCGAC | 0.0349
GCCTCACC | -0.101
CAGTATGC | 0.0528
AGTGTAAA | -0.00712
TATCTCGA | -0.21
CGCTTGGA | -0.0381
AGAGGCCT | -0.267
AAGGTTGC | -0.146
ATCGATGG | 0.207
GTGCCAGA | -0.146
ACCTTCGG | 0.0284
CCATATTC | 0.0327

Sequence | PBM E-score
ATCAGCCC | 0.197
CAATGTCC | 0.00719
CCCCACCC | 0.36
CCCTACGC | -0.147
CTTCAGAA | -0.201
GCCTGAAC | -0.146
GGGCCACC | 0.096
GTGTTTCA | -0.00837
AAAGGAAA | -0.0406
ATGTAACA | 0.127
CTCGGCGA | 0.111
GCTATAAC | -0.107
AGGAAGGC | -0.107
AAAGGGTA | -0.106
AAGCGCCC | 0.0488
CGAGTCTA | -0.0817
TCAAATCA | -0.025
CAAGGGGA | -0.157
GAACATTA | -0.0846
ATTGCCTG | 0.0234
AGGGCCTG | -0.0748
CCATCACA | 0.0295
CACGGATG | -0.0264
AACTGATG | 0.106
AGTATTAG | 0.222

Sequence | PBM E-score
CGGTGACC | -0.121
AGCAACCA | 0.24
AAATCGGC | -0.136
AAAAACCT | -0.0735
CTGCCCGA | 0.0321
AAAGAGCA | -0.155
GTTGCTCA | -0.0502
GAGTTTCC | -0.284
CGGGACAG | 0.034
AGCGCCAA | -0.0793
GTTACCAA | 0.0611
ACAGAGTC | 0.296
ACTCACCT | 0.244
GTACGAAA | -0.0549
ACTCTAGG | -0.072
GAACTATA | 0.222
CCGAGAGA | 0.111
CGGACAGC | -0.164
ACGCGCGA | 0.173
AACTCATA | 0.141
AGTTATAT | 0.209
CTTAATCC | -0.0876
CATCGGTA | 0.0677
GCAGTCCC | 0.106
GGGGTGAA | 0.0563

Sequence | PBM E-score
GTTCTTAA | -0.119
CTTTCTGC | -0.0509
GTCATAGA | 0.13
CCGTGAAG | -0.286
ATTGGTGG | 0.041
ACGTACAT | 0.0383
ATTGCTCG | -0.0231
CCGTCTAC | -0.0423
CTTTCAAA | -0.0961
CACGCCTC | -0.0306
CCGAGGCA | -0.0613
AAACGGAT | 0.144
GCACTTAA | -0.0709
GCCGAATA | 0.0476
ACCTGACT | 0.374
AACTATAG | -0.0781
GGTGCACC | -0.187
CAGAATCA | 0.313
CTCGACCA | -0.204
CCATGCGC | 0.0464
AATTGGAC | -0.0766
ACGCAGTC | 0.169
GGCTACGA | 0.0544
AGGACCCA | 0.00758
CATCATCC | 0.119

Sequence | PBM E-score
AATGTACA | 0.0891
CCTAGTAA | 0.0993
AAATAAAG | -0.0552
TCACTAAA | 0.153
AGCACAGG | 0.00375
CGACTAAA | 0.0758
ATCACGAA | 0.137
AGAACTGC | -0.0768
GACAGTTA | 0.0217
AGATCACG | 0.101
TCCGCGAA | 0.102
AATTGTAG | -0.0816
CCGCGAAG | 0.039
AAAAGCGG | -0.121
CGACGCCA | 0.163
AGTGTCCA | 0.0162
ACCTCGAT | 0.146
AAGACAGG | -0.0702
GAGAGTCC | -0.0872
CTTTATGA | 0.1
CACGTTTA | -0.108
CTCACCTA | 0.103
GGTGTGCA | 0.0446
GTGAACCA | 0.152
TACTCCTA | 0.123

Sequence | PBM E-score
CTAGTTCC | -0.0541
CTCCAAAC | 0.182
CCGGTCCA | -0.167
AGCTTAGG | -0.0375
ACCTAGAC | 0.0688
CAGGTCCG | -0.0013
AGTAGGTC | -0.0653
AGGTCCCA | -0.0161
CCAGGTGC | 0.094
AGTAGGAA | 0.0507
CGGGGGAA | -0.0131
ACAAGACA | 0.182
ACCGATAC | 0.109
AGGGGCAG | -0.163
AAAAGCAA | -0.172
ATCCCGAC | 0.185
ATTGGTAG | 0.0879
GCCGTAGA | -0.138
GGTAAGTA | -0.0331
ATGCGTTA | 0.0237
CGTAGTAG | 0.082
ATTTCGAG | -0.0958
